Laboratory results reported in a compilation of properties of binary mixtures (doi:10.1007/s10973-014-3978-x).
Some of these densities may be calculated back from excess volumes.

Experiment: xn = mol fraction of the nth substance listed
Conditions: 101 kPa

O=C1CCCC1 + CC[n+]1ccn(C)c1.F[B-](F)(F)F
mass density [kg/m3]
Conditions | 293.15 K | 298.15 K | 303.15 K | 308.15 K
x1 = 0.0877 | 1268.9 | 1265.3 | 1261.6 | –
x1 = 0.1164 | 1263.6 | 1260.1 | 1256.4 | 1252.4
x1 = 0.1767 | 1251.9 | 1248.5 | 1244.9 | 1241.1
x1 = 0.2302 | 1240.7 | 1237.4 | – | 1230.2
x1 = 0.2879 | 1227.8 | 1224.6 | – | 1217.5
x1 = 0.3434 | – | 1211.2 | 1207.9 | 1204.3
x1 = 0.3887 | 1202.9 | 1199.6 | – | 1192.7
x1 = 0.478 | 1177.8 | – | 1171.2 | –
x1 = 0.5114 | – | 1164.3 | 1161 | 1157.4
x1 = 0.5878 | 1142.6 | 1139.2 | 1135.8 | 1132
x1 = 0.6115 | 1134.3 | 1130.8 | 1127.3 | 1123.5
x1 = 0.6411 | 1123.6 | 1120 | 1116.4 | 1112.5
x1 = 0.6834 | – | 1103.7 | 1100 | 1096
x1 = 0.7649 | 1073.4 | 1069.4 | 1065.5 | 1061.2
x1 = 0.7867 | 1063.6 | 1059.6 | 1055.5 | 1051.2
x1 = 0.8157 | – | 1046 | 1041.8 | 1037.3
x1 = 0.8755 | – | 1016 | – | 1007
x1 = 0.9061 | 1004.1 | 999.7 | 995.1 | 990.4

CC[n+]1ccn(C)c1.F[B-](F)(F)F + O=C1CCCCC1
mass density [kg/m3]
Conditions | 293.15 K | 298.15 K | 303.15 K | 308.15 K
x2 = 0.0789 | 1269 | 1265.1 | 1261.4 | –
x2 = 0.1407 | 1256.2 | 1252.4 | 1248.8 | 1244.9
x2 = 0.1861 | 1246.2 | – | 1238.9 | 1235.1
x2 = 0.2271 | 1236.7 | 1233 | 1229.5 | 1225.8
x2 = 0.2765 | – | – | 1217.6 | –
x2 = 0.3069 | 1216.8 | – | 1209.8 | –
x2 = 0.3898 | 1194 | 1190.5 | 1187.2 | 1183.5
x2 = 0.4269 | 1183.1 | – | 1176.4 | 1172.5
x2 = 0.489 | 1163.8 | – | 1157 | 1153.2
x2 = 0.5007 | 1160 | 1156.6 | 1153.2 | 1149.3
x2 = 0.5432 | 1145.9 | – | 1139 | 1135
x2 = 0.6302 | 1114.8 | 1111.2 | 1107.6 | 1103.5
x2 = 0.6848 | – | 1090.1 | 1086.3 | 1082.1
x2 = 0.7559 | 1064.7 | 1060.8 | – | 1052.4
x2 = 0.779 | 1054.8 | 1050.8 | 1046.6 | 1042.2
x2 = 0.8235 | 1035 | 1030.9 | 1026.5 | 1022
x2 = 0.8675 | 1014.5 | 1010.3 | – | –
x2 = 0.9001 | 998.8 | 994.5 | 989.9 | 985.2
